The supplement of paper PMC4967469
Lines with a small IC50 respond at low doses; a fit beyond the top or the lowest dose is shown as a bound at that dose. For AUC the same curve is integrated over the 256-fold range of doses and scaled to a fraction; the more sensitive the line, the further below 1. For part of these data: The top dose, if marked as inferred, comes from the curve model; the source does not state it.

Tests used:
Experiment in all cases: Viability of human cancer cell lines after 72 h of drug (GDSC screen)
Temsirolimus = compound: CO[C@H]1C[C@@H]2CC[C@@H](C)[C@@](O)(O2)C(=O)C(=O)N2CCCC[C@H]2C(=O)O[C@H]([C@H](C)C[C@@H]2CC[C@@H](OC(=O)C(C)(CO)CO)[C@H](OC)C2)CC(=O)[C@H](C)/C=C(\C)[C@@H](O)[C@@H](OC)C(=O)[C@H](C)C[C@H](C)/C=C/C=C/C=C/1C [Temsirolimus]; conditions: top dose 0.2 µM
Description: (§1)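 Human cancer cell lines in 384-well plates, medium with 10% serum, drug for 72 h over a 256-fold dose range (nine 2-fold or five 4-fold steps up to the top dose). Adherent lines were fixed and stained with the nucleic acid dye Syto60, suspension lines read with resazurin; signal relative to control wells, capped at 0 and 100%. One two-parameter sigmoid per drug and line, fitted in a mixed model over all curves with the slope shared within a line.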

XMD15-27 = compound: C=CC(=O)Nc1ccc(C(=O)c2sc(Nc3ccc(N4CCN(C)CC4)cc3OC)nc2N)cc1 [XMD15-27]; conditions: top dose 10.24 µM; top dose inferred
Description: as §1

SL 0101-1 = compound: CC(=O)O[C@@H]1[C@@H](OC(C)=O)[C@@H](O)[C@H](Oc2c(-c3ccc(O)cc3)oc3cc(O)cc(O)c3c2=O)O[C@H]1C [SL 0101-1]; conditions: top dose 10 µM; top dose inferred
Description: as §1

Cell Line	AUC (Temsirolimus)	IC50 (Temsirolimus)	AUC (XMD15-27)	IC50 (XMD15-27)	AUC (SL 0101-1)	IC50 (SL 0101-1)
H4 (glioma, adherent)	0.253	0.00246 µM	0.968	> 10.2 µM	0.982	> 10 µM
H9 (lymphoid neoplasm, suspension)	0.985	> 0.2 µM	0.894	8.44 µM	0.992	> 10 µM
H290 (mesothelioma, adherent)	0.626	0.0269 µM	0.989	> 10.2 µM	0.989	> 10 µM
H513 (mesothelioma, semi-adherent)	0.872	> 0.2 µM	0.985	> 10.2 µM	0.984	> 10 µM
H2369 (mesothelioma, adherent)	0.531	0.0152 µM	0.985	> 10.2 µM	0.987	> 10 µM
H2373 (mesothelioma, adherent)	0.631	0.0315 µM	0.973	> 10.2 µM	0.978	> 10 µM
H2461 (mesothelioma, adherent)	0.802	0.128 µM	0.983	> 10.2 µM	0.983	> 10 µM
H2595 (mesothelioma, adherent)	0.828	0.197 µM	0.98	> 10.2 µM	0.977	> 10 µM
H2731 (mesothelioma, adherent)	0.826	0.145 µM	0.806	6.15 µM	0.984	> 10 µM
H2795 (mesothelioma, adherent)	0.382	0.00593 µM	0.779	4.1 µM	0.978	> 10 µM
H2869 (mesothelioma, adherent)	0.887	> 0.2 µM	0.938	> 10.2 µM	0.984	> 10 µM
H3118 (head and neck, adherent)	0.795	0.103 µM	0.969	> 10.2 µM	0.981	> 10 µM
H3255 (lung adenocarcinoma, adherent)	0.827	0.156 µM	0.984	> 10.2 µM	0.978	> 10 µM
HA7-RCC (kidney, adherent)	0.779	0.0905 µM	0.985	> 10.2 µM	0.985	> 10 µM
HAL-01 (lymphoblastic leukaemia, suspension)	0.731	0.0517 µM	0.985	> 10.2 µM	0.966	> 10 µM
HARA (lung squamous cell carcinoma, adherent)	0.731	0.0645 µM	0.968	> 10.2 µM	0.979	> 10 µM
HC-1 (hairy cell leukaemia, suspension)	0.836	0.125 µM	0.984	> 10.2 µM	0.986	> 10 µM
HCC38 (breast, adherent)	0.884	> 0.2 µM	0.952	> 10.2 µM	0.98	> 10 µM
HCC1143 (breast, adherent)	0.864	> 0.2 µM	0.98	> 10.2 µM	0.976	> 10 µM
HCC1187 (breast, suspension)	0.929	> 0.2 µM	0.986	> 10.2 µM	0.977	> 10 µM
HCC1395 (breast, adherent)	0.877	> 0.2 µM	0.973	> 10.2 µM	0.985	> 10 µM
HCC1419 (breast, adherent)	0.565	0.0202 µM	0.98	> 10.2 µM	0.919	> 10 µM
HCC1428 (breast, adherent)	0.931	> 0.2 µM	0.986	> 10.2 µM	0.983	> 10 µM
HCC1500 (breast, adherent)	0.635	0.03 µM	0.98	> 10.2 µM	0.982	> 10 µM
HCC1569 (breast, adherent)	0.946	> 0.2 µM	0.964	> 10.2 µM	0.963	> 10 µM
HCC1937 (breast, adherent)	0.717	0.0573 µM	0.982	> 10.2 µM	0.984	> 10 µM
HCC2157 (breast, suspension)	0.836	0.142 µM	0.987	> 10.2 µM	0.981	> 10 µM
HCC2218 (breast, suspension)	0.955	> 0.2 µM	0.965	> 10.2 µM	0.983	> 10 µM
HCC-15 (lung squamous cell carcinoma, adherent)	0.813	0.148 µM	0.973	> 10.2 µM	0.975	> 10 µM
